# Assay results: PubChem BioAssay AID463173 (ICCB-Longwood Screening Facility, Harvard Medical School, 2010)
# The campaign covered roughly 52,000 compounds. About 1,700 (3.3%) were called active. Rule as the data show it: active = survival mostly below about 52% (no sharp cut-off); inactive = mostly above about 56%. The list shows a part of the results.
# System: Wild type
# Test: growth inhibition of S. aureus wild type versus tarO mutant, primary screen, teichoic acid synthesis inhibitors, RN4220, OD600 (AID 463173)
# Conditions: S. aureus RN4220 wild type/DeltatarO growth, OD600, 18 h, hits give low values, screened at 18.75 µg/mL (by protocol)
row,Compound,survival
1,Cc1cccc(NC(=O)N2CCN(C(=O)c3nsc4ccccc34)CC2)c1C,inactive: 72%
2,Cc1ccc(N2C(=O)NC(NS(=O)(=O)c3ccccc3)(C(F)(F)F)C2=O)cc1C (stereo unspecified),inactive: 69%
3,COc1ccc(CNC(=O)CCCn2nc(C)c3sc4ccccc4c3c2=O)cc1OC,inactive: 84%
4,CCOc1ccccc1CNC(=O)c1ccc(N2Cc3ccccc3Oc3ncccc32)s1,inactive: 84%
5,Cc1cc(C)c(C#N)c(SCc2cccnc2)n1,inactive: 100%
6,Cc1ccc2c(CC(=O)Nc3ccc(S(=O)(=O)N4CCCCC4C)cc3)coc2c1 (stereo unspecified),inactive: 79%
7,Cc1ccc(CNC(=O)c2cccn2-c2nnc(N3CCCC3)s2)cc1,inactive: 79%
8,COc1cccc(NC(=O)CN2C(=O)CSc3ccc(S(=O)(=O)N4CCCC4)cc32)c1,inactive: 107%
9,COc1ccc(N2CCN(C(=O)c3cnn(-c4ccc(F)cc4)c3-n3cccc3)CC2)cc1,inactive: 71%
10,COC(=O)COc1ccc2oc(-c3ccc(OC)cc3)cc(=O)c2c1,inactive: 58%
11,Clc1ccc2c(c1)-c1c(cnc3cc(-c4ccccc4)nn13)CO2,inactive: 78%
12,O=C(Nc1ccc(Br)cc1F)C1CCN(c2nc3ccccc3[nH]2)CC1,inactive: 99%
13,CCOC(=O)c1cc2ccccc2[nH]c1=O,inactive: 119%
14,CCC1CCCCN1CCCNC(=O)CN1C(=O)c2cccnc2Oc2ccc(C)cc21 (stereo unspecified),inactive: 74%
15,CSc1cccc(Nc2cc(C(=O)NCCc3ccc(Cl)cc3)c3ccccc3n2)c1,inactive: 120%
16,Cc1ccc(CNC(=O)CCc2c(C)c3ccc(O)c(C)c3oc2=O)cc1,inactive: 87%
17,O=C1CCCc2cc(S(=O)(=O)N3CCCC(C(=O)Nc4ccc(F)c(Cl)c4)C3)ccc2N1 (stereo unspecified),inactive: 67%
18,CCOc1ccc(C(=O)Nc2nnc(S(=O)(=O)Nc3ccccc3)s2)cc1,inactive: 49%
19,CCOc1cc2[nH]c(=O)n(CCCCC(=O)N3CCN(c4ccc(OC)cc4)CC3)c(=O)c2cc1OCC,inactive: 71%
20,Cc1ccc2[nH]c(C)cc(=S)c2c1,inactive: 98%
21,CCOc1ccc2nc(N3CCC(C(=O)Nc4ccccc4CC)CC3)sc2c1,inactive: 77%
22,CC1CN(C(=O)N2CCC(C(=O)N3CCN(c4ccccc4)CC3)CC2)c2cc(Cl)ccc2O1 (stereo unspecified),inactive: 82%
23,Cc1ccc(CCNc2ncnc3onc(-c4ccc(F)cc4)c23)cc1,inactive: 84%

row,Compound,survival
1,CCOC(=O)c1ccc2[nH]c3c(c2c1)CCCCC3=O,inactive: 120%
2,CCN(CC)C(=O)c1sc2c(c1C)c(=O)n(-c1ccc(Cl)c(Cl)c1)c(=O)n2Cc1cc(=O)n2ccccc2n1,inactive: 118%
3,COc1cccc(CNC(=O)Cn2c(=O)n3nc(-c4cccc(F)c4)nc3c3ccccc32)c1,inactive: 73%
4,CC(=O)Nc1ccc(S(=O)(=O)N2CCC(c3nnc(-c4ccc(C)cc4)o3)CC2)cc1,inactive: 92%
5,CC(C)C(=O)N1c2nc(-c3ccco3)nn2C2(CCCCC2)[C@@H]2CCCC[C@@H]21,inactive: 94%
6,Cc1oc2c(cc(NS(=O)(=O)c3ccc(C(C)C)cc3)c3ccccc32)c1C(=O)O,inactive: 60%
7,Cc1ccc(S(=O)(=O)c2[nH]c(-c3ccccc3)nc2SCC(N)=O)cc1,inactive: 79%
8,COc1ccc(NC(=O)CCn2c(=O)c3cccn3c3cccnc32)cc1Cl,inactive: 92%
9,O=C(Cn1c(=O)n(CCCS(=O)(=O)C2CCCCC2)c(=O)c2ccccc21)Nc1ccccc1C(F)(F)F,inactive: 81%
10,Cc1ccc(C)c(N2CCN(C(=O)CCS(=O)(=O)c3cc4c(cc3Cl)NC(=O)CO4)CC2)c1,inactive: 74%
11,CCn1c(SCC(=O)NC(C)(C)C)nnc1-c1cccc(C)c1,inactive: 101%
12,COC(=O)c1sc2ncccc2c1-n1c(C)ccc1C,inactive: 80%
13,Cc1cc(Br)c2c3c(c(N)c(=O)[nH]c13)-c1ccccc1C2=O,inactive: 103%
14,COc1ccccc1CNS(=O)(=O)c1ccc2c(c1)CC(=O)N2C,inactive: 119%
15,CCOC(=O)N1CCN(C(=O)c2c(C)nn(-c3cccc(C)c3)c2-n2cccc2)CC1,active: -3%
16,COc1ccc(CNC(=O)C2=C(C)C(=O)OC23CCCCC3)cc1,inactive: 85%
17,COc1ccc(-n2ncc3c2ncn2nc(COc4ccc(Cl)cc4)nc32)cc1,inactive: 118%
18,CCCSc1nnc2c(n1)OC(c1ccc(Br)s1)Nc1ccccc1-2 (stereo unspecified),inactive: 88%
19,O=C(NCc1ccc2c(c1)CCN2C(=O)c1ccccc1)c1ccccc1,inactive: 63%
20,CCOc1ccccc1NC(=O)C(CC)Sc1nc2ncccc2[nH]1 (stereo unspecified),inactive: 60%
21,Cc1ccc2oc3c(c(=O)c2c1)C(c1ccccc1F)N(CCCN(C)C)C3=O (stereo unspecified),inactive: 76%
22,O=C(Cn1ncc2ccsc2c1=O)N1CCN(c2ccc(F)cc2)CC1,inactive: 72%
23,CCC1CN(C(=O)Nc2cccc3c2CCCC3)c2cc(Cl)ccc2O1 (stereo unspecified),inactive: 84%

row,Compound,survival
1,Cc1ccc(-n2ncc3c(N4CCC(C(N)=O)CC4)ncnc32)cc1,inactive: 47%
2,COc1ccc(CCNC(=O)CSc2cn(CCNC(=O)c3cccc(C(F)(F)F)c3)c3ccccc23)cc1OC,inactive: 74%
3,Cc1cc(C(F)F)n2nc(C(=O)Nc3ccc(C(C)C)cc3)nc2n1,inactive: 68%
4,Cc1oc(-c2ccccc2Cl)nc1CS(=O)CC(=O)NCc1ccc(Cl)cc1 (stereo unspecified),inactive: 68%
5,O=C(Nc1ccccc1)N1CCCCC1,inactive: 112%
6,Cc1ccc(S(=O)(=O)N2CCc3cc(C(=O)Nc4ccc(C(F)(F)F)cc4)ccc32)cc1,inactive: 88%
7,COc1ccc(CNS(=O)(=O)c2cc3c4c(c2)CCN4C(=O)CC3)cc1,inactive: 133%
8,O=C(CSc1nc2c([nH]c3ccccc32)c(=O)n1-c1cccc(Cl)c1)NCC1CCCO1 (stereo unspecified),inactive: 131%
9,Cc1ccc(COc2ccc(-c3cc(C(F)(F)F)n4nc(C)cc4n3)cc2)cc1,inactive: 126%
10,Fc1ccc(-c2ccc(CNCCSc3nnnn3-c3ccccc3)o2)cc1,inactive: 35%
11,O=S(=O)(Nc1nc2ccccc2nc1Nc1ccccc1Br)c1ccccc1,inactive: 122%
12,CC1CCc2c(sc(NC(=O)c3cc(-c4cccc(Cl)c4)on3)c2C(N)=O)C1 (stereo unspecified),inactive: 95%
13,Cc1ccc(NC(=O)Cc2coc3ccc(C(C)C)cc23)c(C)c1,inactive: 91%
14,COc1cccc(CNC(=O)C(C)n2ncn3cccc3c2=O)c1OC (stereo unspecified),inactive: 88%
15,O=C(Cn1c2ncccc2c(=O)n1-c1ccccc1)NCc1ccccc1Cl,inactive: 86%
16,CCOc1ccc(-c2cn(-c3ccc(C)cc3)c(SCC(=O)Nc3ccc(C)cc3)n2)cc1,inactive: 73%
17,O=C(O)c1c(Cl)c(Cl)c(Cl)c(Cl)c1C(=O)N1CCCC1,inactive: 95%
18,OC1(C#CCN2CCCCCC2)CCCCC1,inactive: 108%
19,O=C(CSc1oc(-c2ccco2)nc1S(=O)(=O)c1ccc(Br)cc1)c1ccccc1,inactive: 65%
20,CCC(=O)C1=C(c2ccc(Cl)cc2)N(C(=O)CC)n2c(C)nnc2S1,inactive: 120%
21,CCS(=O)(=O)c1ccc(O)c(Nc2cc(C)nc(SC)n2)c1,inactive: 102%
22,Cc1ccc(S(=O)(=O)C(CNC(=O)c2ccc(F)c(F)c2)c2ccco2)cc1 (stereo unspecified),active: -6%
23,CCC(C)Cn1c(/C=C/c2ccccc2)nc2ccccc21 (stereo unspecified),active: 1%

row,Compound,survival
1,CCCCn1c(=O)c2oc3ccccc3c2n(Cc2cccc(F)c2)c1=O,inactive: 82%
2,Nc1cc(N)nc(SCC(=O)N2CCCCC2)n1,inactive: 88%
3,Cc1cc(C)cc(NC(=O)c2ccc3c(c2)nnn3C2CCCC2)c1,inactive: 121%
4,Cc1ccc(CNC(=O)CCN2C(=O)COc3ccc(C)cc32)cc1,inactive: 82%
5,CCc1nnc2c(Nc3cccc(F)c3)nc3ccc(C(=O)c4ccccc4)cc3n12,inactive: 79%
6,CCOC(=O)c1cccc(NC(=O)c2cc3c(=O)n(C)c4ccccc4c3n2C)c1,inactive: 69%
7,CCC(=O)c1cc2c(cc1NC(=O)c1cccc(Cl)c1)OCCO2,inactive: 113%
8,CCN(CC)CCOC(=O)c1ccc(NC(=O)c2nn(C)c3c2COc2ccccc2-3)cc1,inactive: 77%
9,O=C(c1cc(-c2cccc(Cl)c2)on1)N1CCN(c2ccccc2)CC1,active: 4%
10,CC(C)c1cnc2c(c1SCC(=O)Nc1ccc(OC(F)(F)F)cc1)c(=O)n(C)c(=O)n2C,inactive: 74%
11,O=C(CCCN1C(=O)c2cccnc2Oc2ccc(Cl)cc21)NCc1ccccc1F,inactive: 70%
12,CC1CCN(S(=O)(=O)c2nnc(NC(=O)c3ccc(C(C)C)cc3)s2)CC1,inactive: 79%
13,Cc1ccc(NC2=C(CC(=O)O)C(c3ccc(F)cc3)N(c3ccc(C)cc3)C2=O)cc1 (stereo unspecified),inactive: 74%
14,COc1ccc(NC(=O)c2c(NCc3ccc(N(C)C)cc3)sc3c2CCC3)cc1,inactive: 71%
15,CCc1ccc(N2CCn3c2nc2c3c(=O)n(C/C=C/c3ccccc3)c(=O)n2C)cc1,inactive: 79%
16,Cc1ccc(CNC(=O)CC(C)CC2=NS(=O)(=O)c3ccccc3N2)cc1 (stereo unspecified),inactive: 72%
17,CCOc1ccccc1NC(=O)N(Cc1ccc(F)cc1)C1CCN(CC)CC1,inactive: 47%
18,O=C(CC1CCCCC1)NCc1ccco1,inactive: 106%
19,Cc1ccsc1CN(C(=O)c1oc2ccc(F)cc2c1C)C1CCS(=O)(=O)C1 (stereo unspecified),inactive: 82%
20,CCOc1ccc(-c2nonc2NC(=O)c2oc3cc(C)c(C)cc3c2C)cc1OCC,inactive: 91%
21,Cc1ccc(NC(=O)C2CCCN2S(=O)(=O)c2cccc3nsnc23)c(C)c1 (stereo unspecified),inactive: 90%
22,CCC(C)c1ccc(NC(=O)C2CCCN(c3ncccn3)C2)cc1 (stereo unspecified),inactive: 108%
